Experimental data published in the supplement of paper PMC10441789.
The other results are listed elsewhere or left out. Antibody binding of pooled human sera (four to six donors per pool; dilution not stated) to peptides of the Trypanosoma cruzi antigen TSSA on microarrays. Quantile-normalised fluorescence in arbitrary units, mean of duplicate arrays; higher = more binding. No active / inactive call. The uninfected pools are read here as the healthy donors of the same country. The strongest signals lie near the top of the scale (about 60,000).

Tests used:
Experiment in all cases: antibody binding signal (normalised fluorescence) (arbitrary fluorescence units); higher = stronger serum antibody binding to peptide
[1] = system: pooled sera of chronic Chagas disease patients, Bolivia
Protocol: (§1)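 Microarray of 15-residue peptides over residues 30-55 of Trypanosoma cruzi TSSAII, each with 1 to 10 substitutions at naturally variable positions, probed with one serum pool per country.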

[2] = system: pooled sera of chronic Chagas disease patients, Brazil
Protocol: as §1

[3] = system: pooled sera of chronic Chagas disease patients, Colombia
Protocol: as §1

[4] = system: pooled sera of chronic Chagas disease patients, Mexico
Protocol: as §1

[5] = system: pooled sera of chronic Chagas disease patients, USA
Protocol: as §1

[6] = system: pooled sera of uninfected people, Argentina
Protocol: as §1

[7] = system: pooled sera of uninfected people, Bolivia
Protocol: as §1

[8] = system: pooled sera of uninfected people, Brazil
Protocol: as §1

[9] = system: pooled sera of uninfected people, Colombia
Protocol: as §1

[10] = system: pooled sera of uninfected people, Mexico
Protocol: as §1

[11] = system: pooled sera of uninfected people, USA
Protocol: as §1

Sequence	antibody binding signal [1]	antibody binding signal [2]	antibody binding signal [3]	antibody binding signal [4]	antibody binding signal [5]	antibody binding signal [6]	antibody binding signal [7]	antibody binding signal [8]	antibody binding signal [9]	antibody binding signal [10]	antibody binding signal [11]
TPPSGTDKKTATGEA	15100	25500	3760	33400	1770	217	168	501	200	706	130
SGTDNKTATGGAPSQ	688	43000	567	489	562	313	777	1500	191	223	262
KKAATGGTPSQSGAS	296	172	259	248	485	273	104	242	300	148	215
PSGKEKKTATGETPS	3700	6890	4690	5310	8360	480	532	211	196	165	148
ENKAATGEAPSQPGA	44700	47200	227	233	31600	268	139	192	194	194	144
EKKAAAGGTPSPPGA	229	251	5490	428	1920	141	776	1640	153	95.2	709
GTDKKTATGGAPSPP	723	691	4100	1420	1310	319	267	106	121	299	123
DNKTAAGEAPSQPGA	27800	40400	383	340	7430	144	272	299	234	386	168
KDKKAAAGEAPSQSG	1150	1570	191	307	7600	118	87.2	94.2	104	89.8	141
KKPATGETPSQPGAS	5210	35400	153	238	16900	467	792	127	186	591	634
PPSGKDNKPATGGAP	899	22500	640	8380	11500	921	1660	179	306	193	404
GTDNKTAAGGTPSQS	294	26000	4830	376	1550	360	710	3090	171	2280	191
SGKENKPAAGGAPSP	779	18800	5390	5270	18900	7600	3030	287	229	317	205
TPPSGKENKAAAGGA	633	1880	2710	2020	2520	3010	875	166	588	188	663
PSGKEKKPAAGEAPS	3500	11000	13900	12600	14800	685	541	102	238	79.5	240
SGTEKKTAAGGTPSP	215	608	14700	1380	2390	127	434	1260	315	304	210
STPPSGTEKKPATGE	46500	43700	508	38800	18100	1050	808	1050	223	238	199
SGKDKKAATGGAPSP	206	235	904	1010	1100	226	95.3	86.3	303	73.7	126
KKPAAGETPSQSGAS	456	3460	215	169	428	259	171	94.3	150	140	290
GKDKKTAAGGTPSQS	222	193	3330	372	1480	177	83.6	242	104	142	113
TDNKPAAGETPSPSG	303	14600	414	242	4040	114	461	235	190	455	1940
KAAAGGTPSPSGASS	257	198	4430	2090	967	139	117	390	226	78.8	181
SGKENKTATGEAPSP	25000	20500	1960	1930	20200	5950	3180	185	507	611	197
SGTENKPATGETPSP	35400	40000	320	497	32800	882	1160	314	167	1900	491
GKEKKPAAGGAPSQS	474	1210	5810	5310	4230	116	109	131	104	79.5	294
GKENKAATGEAPSQP	26300	43600	13800	12300	29600	544	138	114	198	119	195
SGTDNKTAAGETPSQ	530	41100	364	231	249	119	652	993	202	162	236

Sequence	antibody binding signal [1]	antibody binding signal [2]	antibody binding signal [3]	antibody binding signal [4]	antibody binding signal [5]	antibody binding signal [6]	antibody binding signal [7]	antibody binding signal [8]	antibody binding signal [9]	antibody binding signal [10]	antibody binding signal [11]
TISTPPSGTENKAAT	50100	52400	339	3250	25300	3050	593	426	712	455	663
KDKKAAAGGTPSQSG	224	160	1600	1550	1030	146	67.7	1180	118	83.7	90.1
SGTDKKTATGETPSQ	1060	4970	1280	239	7410	217	240	199	163	256	126
ENKTAAGEAPSQPGA	30300	43100	231	275	9610	175	251	308	205	223	188
TENKAAAGGTPSQPG	570	1670	4010	347	2110	330	141	1480	385	803	148
PSGTDKKTATGGTPS	546	3710	5490	1820	2490	294	393	200	389	169	262
PSGTDKKPATGGTPS	880	27000	9920	2670	2490	256	598	482	296	1420	297
TDKKAAAGGAPSQPG	349	2310	5630	634	413	201	100	223	120	235	147
PPSGKEKKTATGETP	663	2310	2000	3270	4760	478	619	104	249	130	171
DNKTATGGTPSPPGA	1140	436	407	290	509	222	193	384	532	232	171
PSGTEKKPAAGGAPS	5370	16000	10400	8650	7590	703	437	316	314	591	822
GTDKKTAAGEAPSPP	238	1040	974	428	8390	164	226	195	1290	192	108
GKDKKPAAGETPSPP	245	2120	900	1120	1660	116	118	79.4	87.4	85.5	134
TENKPATGEAPSPPG	48100	49900	304	610	40400	960	594	322	103	175	162
KAATGEAPSQSGASS	32400	33100	111	160	24200	415	208	169	171	154	167
TPPSGKENKAATGGT	897	1810	571	2430	3020	2930	1250	877	584	179	390
PSGTDKKPAAGGAPS	678	24100	14100	3680	2240	219	476	219	237	1240	306
SGTDNKAATGETPSP	6400	42400	279	276	12500	122	640	1070	200	280	1190
SGTEKKAAAGETPSP	480	1630	620	651	2180	125	540	233	181	188	507
TPPSGKEKKTAAGGA	771	433	3730	22600	1130	440	224	115	161	120	152
GKDNKTAAGGTPSQP	338	715	4710	2520	2570	304	103	233	174	484	146
KKPAAGETPSQPGAS	802	28000	152	148	955	315	549	89.6	185	74.7	418
SGTEKKPAAGGAPSP	339	4200	7720	2300	2420	213	1050	565	157	350	1190
PPSGKENKAAAGEAP	5150	6700	1270	2540	9620	4110	2190	359	1230	238	356
KDNKAAAGETPSQSG	227	5990	159	197	212	276	1350	214	182	118	88.2
ISTPPSGKEKKPATG	250	396	237	36800	453	510	552	126	267	96.8	239
